Test results from the antibiotic and cytotoxicity screens of Wong et al. (2023).
Some of the results follow.

Tests used:
HSkMC = human skeletal muscle cells; assay: cytotoxicity call (relative viability < 0.9); settings: 10 µM
HepG2 = assay: cytotoxicity call (relative viability < 0.9); settings: 10 µM
S. aureus RN4220 = assay: growth inhibition call (relative growth <= 0.2); settings: 50 µM

| Compound | cytotoxicity call (HSkMC) | cytotoxicity call (HepG2) | growth inhibition call (S. aureus RN4220) |
| --- | --- | --- | --- |
| CCC(=O)N1C[C@]2(C1)CN([C@H](CO)c1c2c2ccc(cc2n1C)OC)S(=O)(=O)C | inactive | inactive | inactive |
| C[C@@H]1CCCCO[C@H](CN(C)C(=O)Nc2ccc3c(c2)OCO3)[C@H](C)CN([C@H](C)CO)C(=O)c2cc(NC(=O)Nc3ccccc3)ccc2O1 | inactive | inactive | inactive |
| C[C@H]1CN([C@@H](C)CO)C(=O)c2cc(NS(C)(=O)=O)ccc2O[C@@H]1CN(C)Cc1ccc(C(=O)O)cc1 | inactive | inactive | inactive |
| COC(=O)C[C@H]1CC[C@H]2[C@@H](COC[C@@H](O)CN2S(=O)(=O)c2cn(C)cn2)O1 | inactive | inactive | inactive |
| CC(C)NC(=O)Nc1ccc2c(c1)C(=O)N([C@@H](C)CO)C[C@H](C)[C@H](CN(C)C(=O)NC1CCCCC1)O2 | inactive | inactive | inactive |
| C[C@@H]1CN([C@@H](C)CO)C(=O)c2cc(NS(=O)(=O)c3cccs3)ccc2O[C@@H](C)CCCCO[C@@H]1CN(C)Cc1ccc2c(c1)OCO2 | inactive | inactive | inactive |
| C[C@@H]1CN([C@H](C)CO)C(=O)c2cc(NC(=O)Cc3ccccc3)ccc2O[C@@H](C)CCCCO[C@@H]1CN(C)S(=O)(=O)c1ccc(Cl)cc1 | inactive | inactive | inactive |
| C[C@H](CO)N1C[C@H](C)[C@@H](CN(C)S(=O)(=O)c2ccc(F)cc2)Oc2ccc(NC(=O)CCN3CCOCC3)cc2CC1=O | inactive | inactive | inactive |
| C[C@@H]1CCCCO[C@H](CN(C)C(=O)c2ccccc2)[C@@H](C)CN([C@H](C)CO)C(=O)c2cc(NS(=O)(=O)c3ccccc3)ccc2O1 | inactive | inactive | inactive |
| C[C@@H]1CN([C@H](C)CO)C(=O)c2cc(C#CCc3ccccc3)cnc2O[C@@H]1CN(C)C(=O)Cc1cccnc1 | inactive | inactive | inactive |
| O=C(NCCN1CCCC1)[C@@H]1N[C@@H]2c3ccc(-c4ccccc4)c(=O)n3C[C@@H]2[C@H]1CO | inactive | inactive | inactive |
| C[C@H](CO)N1C[C@H](C)[C@H](CN(C)S(=O)(=O)c2cccs2)OCCCC[C@H](C)Oc2ccc(NC(=O)Cc3ccccc3)cc2C1=O | inactive | inactive | inactive |
| CC(C)NC(=O)Nc1ccc2c(c1)C(=O)N([C@H](C)CO)C[C@H](C)[C@H](CN(C)C(=O)Nc1cccc3ccccc13)OCCCC[C@H](C)O2 | inactive | active | inactive |
| COc1ccc(NC(=O)Nc2ccc3c(c2)CC(=O)N([C@H](C)CO)C[C@H](C)[C@H](CN(C)S(=O)(=O)c2c(C)noc2C)O3)cc1 | inactive | inactive | inactive |
| C[C@@H]1CN([C@@H](C)CO)C(=O)c2cc(Br)cnc2O[C@@H]1CN(C)S(C)(=O)=O | inactive | inactive | inactive |
| Cc1noc(C)c1NC(=O)Nc1ccc2c(c1)C(=O)N([C@H](C)CO)C[C@H](C)[C@@H](CN(C)C(=O)Nc1ccc(C(F)(F)F)cc1)O2 | inactive | inactive | inactive |
| C[C@@H]1CN([C@H](C)CO)C(=O)c2cc(NC(=O)Cn3cnnn3)ccc2O[C@H]1CN(C)Cc1ccccc1 | inactive | inactive | inactive |
| C[C@H]1CNC(=O)[C@@H](CC(=O)N(CCOC(=O)NCCCCCC(=O)NO)Cc2ccccc2)C/C=C/CC[C@H](NC(=O)OC(C)(C)C)C(=O)O1 | inactive | inactive | inactive |
| CC(C)Nc1ncnc(N)c1[N+](=O)[O-] | inactive | inactive | inactive |

| Compound | cytotoxicity call (HSkMC) | cytotoxicity call (HepG2) | growth inhibition call (S. aureus RN4220) |
| --- | --- | --- | --- |
| COCC#Cc1cnc2c(c1)C(=O)N([C@@H](C)CO)C[C@@H](C)[C@H](CN(C)S(=O)(=O)c1ccccc1)O2 | inactive | inactive | inactive |
| O=C1c2ccccc2[C@](Cc2ccccc2I)(C(=O)NCc2ccccc2)[C@H](c2ccc(CO)cc2)N1Cc1ccccc1C(F)(F)F | inactive | inactive | inactive |
| C[C@H]1CN([C@@H](C)CO)C(=O)c2cc(C#CCN(C)C)cnc2O[C@@H]1CN(C)C(=O)c1cnccn1 | inactive | inactive | inactive |
| CC(C)NC(=O)Nc1ccc2c(c1)CC(=O)N([C@@H](C)CO)C[C@H](C)[C@H](CN(C)S(=O)(=O)c1ccccc1)O2 | inactive | inactive | inactive |
| C[C@H]1CCCCO[C@@H](CN(C)C(=O)NC2CCCCC2)[C@@H](C)CN([C@@H](C)CO)C(=O)c2cc(NC(=O)Nc3ccc(C(F)(F)F)cc3)ccc2O1 | inactive | active | inactive |
| Cc1noc(C)c1S(=O)(=O)Nc1cccc2c1O[C@@H](CN(C)Cc1ccc(Oc3ccccc3)cc1)[C@@H](C)CN([C@H](C)CO)C2=O | inactive | inactive | inactive |
| O=C(C[C@@H]1CC[C@@H]2[C@H](COC[C@H](O)CN2CC2CCOCC2)O1)N1CCOCC1 | inactive | inactive | inactive |
| C[C@@H]1CN([C@@H](C)CO)C(=O)c2cc(NC(=O)CCCN(C)C)ccc2O[C@@H](C)CCCCO[C@@H]1CN(C)C | inactive | inactive | inactive |
| c1cc(-c2nnc(Cn3cncn3)[nH]2)ccn1 | inactive | inactive | inactive |
| O=C(C[C@@H]1C[C@H]2c3cc(NC(=O)Nc4ccc(C(F)(F)F)cc4)ccc3O[C@H]2[C@H](CO)O1)NC1CCCCC1 | inactive | inactive | inactive |
| C[C@H](CO)N1C[C@H](C)[C@H](CN(C)CC2CCCCC2)OCCCC[C@H](C)Oc2ccc(NS(=O)(=O)c3ccc(Cl)cc3)cc2C1=O | inactive | active | inactive |
| O=C(C[C@H]1C[C@@H]2c3cc(NS(=O)(=O)c4ccc(F)cc4)ccc3O[C@@H]2[C@H](CO)O1)N1CCCCC1 | inactive | inactive | inactive |
| Cc1noc(C)c1NC(=O)Nc1cccc2c1O[C@@H](CN(C)Cc1ccc(C(F)(F)F)cc1)[C@@H](C)CN([C@@H](C)CO)C2=O | inactive | inactive | inactive |
| C[C@H]1CN([C@@H](C)CO)C(=O)c2cc(NC(=O)CCCN(C)C)ccc2O[C@H]1CN(C)C(=O)Nc1ccccc1 | inactive | inactive | inactive |
| O=C(C[C@H]1CC[C@H]2[C@@H](COC[C@@H](O)CN2S(=O)(=O)c2ccccc2F)O1)NCc1ccccc1Cl | inactive | inactive | inactive |
| N#CCn1ccccc1=O | inactive | inactive | inactive |
| CO[C@@H]1CN(C)C(=O)c2ccc(NS(C)(=O)=O)cc2OC[C@H](C)N(C(=O)c2ccc3c(c2)OCO3)C[C@@H]1C | inactive | inactive | inactive |
| COc1cccc2cc(C(C)=O)oc12 | inactive | inactive | inactive |
| C[C@@H]1CCCCO[C@@H](CN(C)C(=O)Nc2ccc(C(F)(F)F)cc2)[C@H](C)CN([C@H](C)CO)C(=O)c2cc(N(C)C)ccc2O1 | inactive | active | inactive |

| Compound | cytotoxicity call (HSkMC) | cytotoxicity call (HepG2) | growth inhibition call (S. aureus RN4220) |
| --- | --- | --- | --- |
| O=C(C[C@@H]1C=C[C@@H](NC(=O)c2cccc(F)c2)[C@H](CO)O1)NCCN1CCCC1 | inactive | inactive | inactive |
| O=C1CN(/N=C/c2ccc([N+](=O)[O-])o2)C(=O)N1 | inactive | active | active |
| CCc1cn([C@H]2C[C@@H](O)[C@@H](CO)O2)c(=O)[nH]c1=O | inactive | inactive | inactive |
| C[C@H](CO)N1C[C@H](C)[C@@H](CN(C)C)Oc2ccc(NS(=O)(=O)c3cn(C)cn3)cc2CC1=O | inactive | inactive | inactive |
| C[C@@H]1CN([C@H](C)CO)S(=O)(=O)c2ccc(C#CC3(O)CCCC3)cc2O[C@@H]1CN(C)C(=O)Cc1ccncc1 | inactive | inactive | inactive |
| CC(=O)O | inactive | inactive | inactive |
| C[C@@H]1CN([C@@H](C)CO)C(=O)Cc2cc(NC(=O)Nc3ccc(F)cc3)ccc2O[C@@H]1CN(C)Cc1ccc(C(F)(F)F)cc1 | active | active | inactive |
| Cc1ccc(S(=O)(=O)Nc2cccc3c2O[C@H](CN(C)Cc2ccc(C(F)(F)F)cc2)[C@H](C)CN([C@@H](C)CO)C3=O)cc1 | inactive | inactive | inactive |
| C[C@@H]1CN([C@@H](C)CO)C(=O)c2cccc(NC(=O)c3cnccn3)c2O[C@@H]1CN(C)S(C)(=O)=O | inactive | inactive | inactive |
| C[C@H]1CCCCO[C@@H](CN(C)C(=O)c2ccncc2)[C@@H](C)CN([C@@H](C)CO)C(=O)c2cc(NC(=O)C3CCCCC3)ccc2O1 | inactive | inactive | inactive |
| CCc1nc(C(N)=O)c(Nc2ccc(N3CCC(N4CCN(C)CC4)CC3)c(OC)c2)nc1NC1CCOCC1 | inactive | active | inactive |
| CC(C)NC(=O)Nc1ccc2c(c1)C(=O)N([C@@H](C)CO)C[C@H](C)[C@@H](CN(C)Cc1ccccc1)OCCCC[C@H](C)O2 | inactive | inactive | inactive |
| C[C@@H]1CN([C@H](C)CO)C(=O)c2cc(NC(=O)CCCN(C)C)ccc2O[C@@H]1CN(C)Cc1ccccc1 | inactive | inactive | inactive |
| O=C(C[C@H]1C=C[C@@H](NC(=O)CN2CCOCC2)[C@@H](CO)O1)NCc1cccc(F)c1 | inactive | inactive | inactive |
| CO[C@@H](CN(C)S(=O)(=O)c1ccc(C)cc1)[C@H](C)CN([C@@H](C)CO)S(=O)(=O)c1cccc(Cl)c1 | inactive | inactive | inactive |
| C[C@H](CO)N1C[C@H](C)[C@@H](CN(C)Cc2ccc(C(F)(F)F)cc2)OCCCC[C@H](C)Oc2ccc(N(C)C)cc2C1=O | inactive | inactive | inactive |
| C=CCNC(=O)[C@H]1[C@@H]2C(=O)O[C@@H](c3ccccc3)[C@@H](c3ccccc3)N2[C@@H](c2ccc(O)cc2)[C@]12C(=O)N(C(=O)OCCOC)c1ccc(C#Cc3ccc(OC)cc3)cc12 | inactive | inactive | inactive |
| O=C(C[C@@H]1CC[C@@H](NC(=O)CN2CCOCC2)[C@H](CO)O1)NCCc1ccccc1 | inactive | inactive | inactive |
